The text below walks through data of publication PMC6212790.

This is one part of the list. At the low end of the ranking the order means little.

This test has as its target T1, GST-Rok (full length) (UniProt O34857).
T1 sequence: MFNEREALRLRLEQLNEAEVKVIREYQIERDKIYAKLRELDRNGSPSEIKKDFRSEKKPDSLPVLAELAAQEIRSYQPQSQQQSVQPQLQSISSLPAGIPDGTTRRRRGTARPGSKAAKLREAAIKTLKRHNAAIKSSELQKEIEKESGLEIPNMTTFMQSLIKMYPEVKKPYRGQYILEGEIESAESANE
Kind of test: protein binding microarray.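 Note: rank score from −0.5 (least bound) to 0.5 (best bound).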 To be noted: Rok is a gene silencer of Bacillus subtilis; high values mean tight binding; most listed sequences are background and not binding sites; double strand, one strand shown.
TATACACA came in with a binding signal of 0.2 E-score.
As for GCTAGTAA, the binding signal came to 0.294 E-score.
Next, CTTTCAAC: -0.0275 E-score.
Sequence AAATCATC came in with a binding signal of 0.0641 E-score.
Next, CCCAGCTC: -0.326 E-score; CCGCTTCG: -0.16 E-score; TCTCGCAA: -0.122 E-score.
The value for TAATCATA was 0.158 E-score; that for TGTTGCAA was 0.238 E-score.
Next, CCGGCATA: -0.142 E-score.
CGTGTCAG returned a binding signal of -0.313 E-score.
Next, AATTCTGT: 0.206 E-score.
Next, GTGGGAAC: -0.105 E-score; ATACGCGG: 0.0392 E-score; AACGACGA: 0.183 E-score.
Turning to ATACACTA, the binding signal came out at 0.303 E-score.
Turning to CGCAAGTA, the binding signal was found to be 0.111 E-score.
Regarding ATTCTCGG, the binding signal was 0.0396 E-score.
On to AGGCTACT, for which the binding signal amounted to 0.0884 E-score.
The sequence GATTGGCC returned a binding signal of -0.113 E-score.
The value for ATGGGGGA was -0.306 E-score; that for CGGGCCGC was -0.361 E-score; that for GGCGGGTA was -0.394 E-score.
For AACTTAAA, the binding signal is -0.0208 E-score.
The value for CGCCTACA was -0.0321 E-score; that for ACGTAAAT was 0.323 E-score.
The value for AGGATACA was 0.105 E-score; that for AGAATGTG was 0.117 E-score; that for AAACTAAT was 0.332 E-score.
Next, ATTGGGTC: -0.215 E-score; GTACAGGA: 0.0953 E-score; CTATTGCC: -0.0546 E-score.
For AGCAAGTA, the binding signal stood at 0.141 E-score.
Next, TAGTATAA: 0.404 E-score.
The sequence GCGTGAAA returned a binding signal of -0.0739 E-score.
The value for GGCGCGGA was -0.296 E-score.
GCTTATGA registered a binding signal of -0.198 E-score.
The value for GCATCACA was 0.106 E-score; that for CGTCTGAG was -0.283 E-score; that for CGAGGACG was -0.293 E-score.
The sequence TCGTCTCA showed a binding signal of -0.0794 E-score.
Next, TACACGCA: 0.184 E-score; GAAAAGGC: -0.21 E-score; AACCGCTC: -0.259 E-score.
For the sequence CACGATAA, the binding signal turned out to be 0.0955 E-score.
Regarding CACTGAAC, the binding signal is -0.0415 E-score.
Next, CCATCTTA: -0.0399 E-score; AAAATCAC: 0.0989 E-score; CGATTATC: 0.0989 E-score.
Next, AAGGTCGA: 0.128 E-score; GCGTTGAC: -0.111 E-score.
For the sequence AGCGCCAC, the binding signal is -0.234 E-score.
CAGTCGGC registered a binding signal of -0.129 E-score.
For CCGGGAGC, the binding signal was -0.319 E-score.
Sequence CCGGGTGA returned a binding signal of -0.144 E-score.
Next, AAAACTCT: 0.171 E-score; TCTTTTAA: 0.0192 E-score.
CACCACAG displayed a binding signal of -0.0169 E-score.
The sequence ACATGTTC gave a binding signal of 0.192 E-score.
The value for CATTCGAC was -0.0252 E-score; that for ACGGATTA was -0.0254 E-score; that for ACCTCAGT was -0.0504 E-score.
Next, ACGACGGC: -0.23 E-score.
Next, GGCACCAC: -0.0944 E-score; GTCTGAAA: 0.0376 E-score; AATCCAAT: 0.104 E-score.
Take GCAATAAA: the binding signal is 0.143 E-score.
Sequence AGACGGCC registered a binding signal of -0.0687 E-score.
Next, GACCGTAC: 0.126 E-score; CTAGTGAC: 0.0381 E-score; ATGGCAGG: -0.18 E-score.
The value for AGCGGGAC was -0.3 E-score.
For the sequence AAGGCGAT, the binding signal was -0.125 E-score.
The value for AGGGGACT was -0.307 E-score.
For CATTCTTA, the binding signal was found to be 0.155 E-score.
CTTTTCTA had a binding signal of 0.219 E-score.
Sequence GCACTCAA displayed a binding signal of -0.134 E-score.
AACATCGG: the binding signal is -0.0495 E-score.
Next, ATCTCCTA: 0.104 E-score.
Next, AGGTGTAC: 0.0376 E-score; AGGTCTGA: -0.175 E-score; ACCAGTTC: -0.0883 E-score.
GCCAAGCC had a binding signal of -0.104 E-score.
Take CGTGCACA: the binding signal was determined as 0.0495 E-score.
GTCTCGTA yielded a binding signal of 0.0282 E-score.
In the case of CTCCTTGA, the binding signal is -0.123 E-score.
The value for CGACTGCA was -0.147 E-score.
Consider GAACTAGA, for which the binding signal turned out to be 0.36 E-score.
AAATGCAT yielded a binding signal of 0.178 E-score.
The value for ATGTCATG was 0.0366 E-score.
GCACATCC: the binding signal was -0.057 E-score.
CGTGGTAC returned a binding signal of 0.0445 E-score.
The value for AGTAAAAA was 0.29 E-score; that for ACGTCATC was -0.0835 E-score; that for CACAAATA was 0.35 E-score.
The sequence GATATTTA yielded a binding signal of 0.351 E-score.
For ATGTAGAG, the binding signal was 0.199 E-score.
The value for CCCAGCTA was 0.0531 E-score; that for TATTTAGA was 0.138 E-score; that for ATAGAATC was 0.254 E-score.
In the case of ATGGCGAA, the binding signal came to 0.105 E-score.
CGCCCTAG came in with a binding signal of -0.229 E-score.
In turn, ACTCTCCT came in with a binding signal of 0.00831 E-score.
ACCACATC came in with a binding signal of -0.0356 E-score.
Next, AAACCCGG: -0.0892 E-score; CTGTCAAA: -0.00642 E-score.
Take ATTCGTCA: the binding signal is 0.141 E-score.
Next, AAAGACCC: -0.113 E-score; GATGCGCC: -0.207 E-score.
Next, CCTAGTCA: -0.164 E-score; ATCTTTTG: -0.0831 E-score.
Take ACCTGACT: the binding signal was -0.18 E-score.
With ATGGACAA, the binding signal was -0.0253 E-score.
ACACGTCT came in with a binding signal of -0.101 E-score.
Sequence CGACCTAC came in with a binding signal of -0.115 E-score.
For GAGATGAC, the binding signal was -0.0605 E-score.
Next, AGAGAATA: 0.0988 E-score; GCACCCTA: 0.00434 E-score; CCACTACG: -0.00677 E-score.
The value for CTTTTCCC was -0.247 E-score; that for ACACCTTG was -0.19 E-score; that for AAACCTGC was -0.197 E-score.
In the case of CCAGCGTC, the binding signal is -0.23 E-score.
On to ATAATGAA, for which the binding signal is 0.193 E-score.
The value for CAAGTTGA was -0.087 E-score.
The value for ATAGGTGG was 0.0151 E-score.
Regarding CCGCTCTA, the binding signal is -0.0889 E-score.
Sequence CGAGACGC returned a binding signal of -0.297 E-score.
The value for AAATAATT was 0.312 E-score; that for ATCGGGTG was -0.102 E-score; that for CCTCCGAA was -0.131 E-score.
The value for CAGCACGG was -0.2 E-score; that for TGTATCAA was 0.253 E-score; that for AGCCGGGG was -0.231 E-score.
The sequence CTATCCTC showed a binding signal of 0.0731 E-score.
The value for GACGGTTA was 0.0128 E-score; that for CCGAGGGC was -0.416 E-score.
AAGGATAG showed a binding signal of 0.115 E-score.
Turning to GACGCTAA, the binding signal was found to be 0.0755 E-score.
Next, CCCGTTAA: -0.0855 E-score; CGTTGGCC: -0.219 E-score; AGCAAGCT: -0.126 E-score.
Next, ATAACACA: 0.165 E-score; CAGTATCC: -0.126 E-score.
The value for AGCAGAAC was 0.0117 E-score; that for AGTCGAGG was -0.0571 E-score.
Regarding AGGAGCAA, the binding signal was -0.16 E-score.
Regarding CGCTCATA, the binding signal was 0.0172 E-score.
As for AAGTAGAA, the binding signal is 0.305 E-score.
Next, GAACAGCC: -0.152 E-score.
On to GAGAGATA, for which the binding signal came out at 0.0854 E-score.
Next, ACCATCAG: 0.0145 E-score; AGCCTGTC: -0.125 E-score.
The value for CGAGGTCA was -0.271 E-score; that for CATTCCCC was -0.366 E-score; that for CATTTTCC was -0.0597 E-score.
Next, CAATGTAA: 0.0505 E-score; CATTTTGG: -0.0155 E-score; CCCGTATA: 0.055 E-score.
GTTATCTA: the binding signal is 0.285 E-score.
The value for AATCTACT was 0.432 E-score.
The value for GCAGACGA was -0.159 E-score; that for CAAAAATC was 0.00179 E-score.
On to CTAAAAGA, for which the binding signal turned out to be 0.217 E-score.
The value for TAAACGCA was -0.0851 E-score; that for ACAAATTA was 0.338 E-score.
The value for AAAAGTAA was 0.104 E-score.
CGACACCA: the binding signal worked out at 0.106 E-score.
Next, AGTTTTCC: 0.109 E-score; CATTGTAC: 0.175 E-score; AGGTCCCG: -0.184 E-score.
As for AGGCTAAC, the binding signal is 0.0196 E-score.
Next, AATAGCGT: 0.0506 E-score; ACGACTTC: 0.0651 E-score; CTCTGGTC: -0.00712 E-score.
For AGTGCATA, the binding signal worked out at 0.021 E-score.
The value for ACCATCTG was 0.19 E-score.
As to ACCATAAC, the binding signal came to 0.158 E-score.
Next, CTAAAAAA: 0.00115 E-score; GTGGCGCA: -0.303 E-score.
CCGGATTA returned a binding signal of 0.061 E-score.
As for AATACTGA, the binding signal worked out at 0.188 E-score.
Next, CTTCAGAA: -0.0131 E-score.
The value for GCGTGCCC was -0.358 E-score; that for CGATTTAG was 0.109 E-score; that for GACGCCAC was -0.163 E-score.
As for CTCGCCAG, the binding signal is -0.0875 E-score.
The value for ATATTATG was 0.111 E-score; that for GTACCCAA was 0.0522 E-score; that for ATGTATAG was 0.244 E-score.
ACTTCATG gave a binding signal of 0.0707 E-score.
In turn, GAATCGTA had a binding signal of 0.192 E-score.
The value for ACGACGTC was -0.00233 E-score.
In the case of CCACTAGA, the binding signal was determined as 0.151 E-score.
The sequence ATCTTGTA returned a binding signal of 0.251 E-score.
As for AACGGCGT, the binding signal is -0.0861 E-score.
In the case of ACAAACGC, the binding signal is -0.21 E-score.
As for ATGACGCA, the binding signal is 0.00313 E-score.
In turn, CAGCCTCA showed a binding signal of -0.155 E-score.
As for TACCTGCA, the binding signal is 0.000163 E-score.
Consider AAAGCCTG, for which the binding signal is -0.18 E-score.
The sequence GGCGATAA displayed a binding signal of 0.098 E-score.
The value for GGCACTAA was 0.0305 E-score.
Sequence ATAGTAAT had a binding signal of 0.392 E-score.
GAACCTGC showed a binding signal of -0.337 E-score.
CCCGTTCC displayed a binding signal of -0.151 E-score.
The value for ACCATGTC was -0.0499 E-score.
For the sequence CCCTCTAC, the binding signal was -0.341 E-score.
AACGGGTC registered a binding signal of -0.157 E-score.
Next, ACATTACG: 0.191 E-score; AACCCAAC: 0.212 E-score; GACAACCA: -0.0247 E-score.
Next, GAGTTACC: 0.208 E-score.
For the sequence GTCCAATA, the binding signal was -0.047 E-score.
The value for AGGGCGTA was -0.327 E-score; that for GTGGGTAA was 0.142 E-score; that for TATTGTGA was 0.188 E-score.
The value for ACCGAGAG was 0.0653 E-score.
Next, TCGGTACA: 0.201 E-score.
